In all, about 48,000 compounds went through this assay and about 450 (0.94%) were called active. Roughly 19% stayed inconclusive and do not appear here. The call rests on the fitted dose curve; in most records, active means well fitted inhibition curve with a large enough effect; inconclusive means small, poorly fitted or top-dose-only effect; inactive means no such curve, though single readings can be large or run the other way. Some of the results follow.
Assay: Primary qHTS for Identification of Small Molecule Inhibitors of Huntingtin Promoter Activity; further: nearly all actives have a fitted effect of over 50% in size
Details: HEK293 HTT promoter firefly luciferase reporter (activity 0% = vehicle and -100% = no light), 24 h; series mostly up to 57.5 µM; activity change, negative = inhibition: at the top concentration
Summary of the method: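 Luminescence was read after Dual-Glo reagent and a 10 min room-temperature incubation. Values were normalized to vehicle (0% activity) and zero RLU (-100% activity). Reporter HEK293 cells had been exposed to compounds (up to 57.5 uM final) for 24 h.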

Activity change, negative = inhibition, inactive:
O=c1c2cnn(-c3ccc(F)cc3)c2ncn1Cc1ccccc1Cl -9.18%, Cc1cc(C)n(CCc2nc3c4ccccc4nc(SCc4ccc(F)cc4)n3n2)n1 -16.5%, Cc1ccc(CNC(=O)c2c[nH]c3ccc(S(=O)(=O)N4CCOCC4)cc3c2=O)cc1 0.198%, O=C(NC1CC(=O)N(c2ccc(F)cc2)C1)C1CCCC1 (configuration not stated) 0.766%, Cc1c(C(=O)Nc2ccc(F)cc2F)oc2c1-c1nn(Cc3c(F)cccc3Cl)cc1CC2 -10.9%, CCOC(=O)c1c(NC(=O)c2ccc(C)cc2)sc2c1CCCCC2 -10.8%, COc1ccc(C)cc1NC(c1nnc(-c2ccccc2)o1)c1ccc(F)cc1Cl (configuration not stated) -23.9%, CC(=O)c1ccc(S(=O)(=O)Nc2ccc(-c3cn4c(C)csc4n3)cc2)cc1 -3.31%, CCc1ccc(N2CC(c3nnc(NC(=O)c4ccco4)s3)CC2=O)cc1 (configuration not stated) -15.5%, N#Cc1ccccc1NC(=O)CSc1nc(-c2ccccc2)cc(C(F)(F)F)c1C#N -28%, COc1cc(Cl)c(C)cc1NC(=O)c1cc(S(=O)(=O)N2CCCC2)ccc1F -7.66%, Cc1ccc(Nc2nc(-c3ccccc3)nc3ccccc23)cc1 -28.6%, Cc1cc(NC(=O)c2ccccc2F)ccc1-c1nc2ccccc2s1 49.2%, Cc1ccc(-n2cnc3cc(C(=O)NCCC4=CCCCC4)ccc32)c(C)c1 -25.2%, CCOC(=O)Cc1ccc(NC(=O)N(Cc2ccc(OC)cc2)C2CCN(C(C)=O)CC2)cc1 -13.2%, CCOC(=O)c1c(NC(=O)/C(C#N)=C/c2ccc(OC)cc2)sc2c1CCC2 -3.41%, Cc1cccc(C)c1OCC(=O)N(Cc1ccccc1F)C1CCS(=O)(=O)C1 (configuration not stated) -6.23%, CCc1ccc(NC(=O)c2sc(-n3nc(C)c(CCC(C)C)c3C)nc2C)cc1 -10.2%, CCn1c2ccccc2c2nnc(N3CCN(c4cccc(Cl)c4)CC3)nc21 6.76%, CCOC(=O)c1c(C)[nH]c(CCC(=O)NCc2ccc(OC)c(OC)c2)c1C 2.51%, CC(Cc1ccc(O)c(O)c1)(NN)C(=O)O (configuration not stated) 3.39%, COc1ccc(CNC(=O)Cc2c(C)c3cc4c(C)coc4cc3oc2=O)cc1 -9.15%, Cc1ccc(N2CCn3c2nc2c3c(=O)n(C/C=C/c3ccccc3)c(=O)n2C)cc1C 12.4%, CCc1ccc(NC(=O)CCc2c(C)nc3nc(-c4cc(OC)cc(OC)c4)nn3c2C)cc1 -14.1%, Cc1cc(NS(=O)(=O)c2ccc(N)cc2)nc(C)n1 1.19%, COc1ccccc1-c1c(C)nn2c(-c3ccccc3)cc(-c3ccccc3)nc12 -14.8%, CCOc1ccc(C2=NC(c3ccncc3)=Nc3ccc(C)cc3N2)cc1OCC -25.6%, COCc1cc(C)nc2sc(C(=O)Nc3ccccc3O)c(N)c12 59%, Cc1ccc(OCCn2cc(C(=O)c3cccs3)c3ccccc32)cc1 -28.4%, COc1ccccc1NC(=O)C1=C(C)Nc2c(C(=O)Nc3ccc(C)cc3)cnn2C1c1cccc(OC)c1OC (configuration not stated) 13.7%, Cc1ccccc1NC(=O)c1cc2c(-c3ccccc3)nn(-c3ccccc3)c2s1 -10.9%, Cc1ccsc1/C=C/C1=NCCCN1C 8%, Cc1cccc(N2CCN(C(=O)Cn3nc(C)c4sc5ccccc5c4c3=O)CC2)c1C -4.37%, COc1ccc(CNC(=O)Cn2c(=O)nc(-c3ccccc3)c3cc(Cl)ccc32)cc1OC -4.85%, CCc1ccc(NCc2cc3ccc(OC)cc3n(CC(=O)Nc3ccccc3C)c2=O)cc1 -23.8%, CCCCN(CCCC)CCNC(=O)Cn1nc(CC)n2c(cc3sccc32)c1=O 11%, COC(=O)c1ccc(Cl)cc1NC(=O)Nc1nnc(N(C)C2CCCCC2)s1 -8.04%, Cc1ccc(CNC(=O)C(NS(=O)(=O)c2cccs2)C(C)C)cc1 (configuration not stated) -9.62%, Cc1ccc(CSC2=Nc3ccccc3C3=NC(CCC(=O)NC4CCCCC4)C(=O)N23)cc1 (configuration not stated) -7.03%, CC(=O)c1cccc(NC(=O)CSc2nc3c(c(=O)[nH]2)CCC3)c1 -13.2%, COc1ccc(-n2nc3ccc(NC(=O)c4c(OC)cccc4OC)cc3n2)cc1 -3.04%, O=C(Cn1c(=O)n(-c2ccc(F)cc2)c(=O)c2sc3ccccc3c21)NC1CCCC1 -23.4%, CCc1ccc2oc(C(=O)Nc3ccccc3OC)cc(=O)c2c1 23.4% [at 11.5 µM], CCc1nc2ccccc2n2c(-c3ccc(C)cc3)c3c(=O)n(C)c(=O)n(C)c3c12 -5.38%, Cc1cc(C)cc(NC(=O)C2CCCN(S(=O)(=O)c3cccc4nsnc34)C2)c1 (configuration not stated) 1.32%, NC(=O)C1CCN(C(=O)c2ccc3c(c2)N(Cc2cccc(Cl)c2)C(=O)c2ccccc2S3=O)CC1 (configuration not stated) -13.9%, CCOC(=O)c1c(C)[nH]c(C)c1S(=O)(=O)NCC(=O)Nc1ccc(C)cc1C -19.7%, COc1ccc(CSc2nc3ccncc3n2CC(=O)Nc2cc(C)cc(C)c2)cc1 7.37%, Cc1csc2nc(COC(=O)CNC(=O)c3ccc(F)cc3)cc(=O)n12 5.71%, Cc1ccc(C(=O)Nc2ccccc2C(=O)OCc2cc(=O)n3nc(C(C)C)sc3n2)cc1 -7.98%, Cc1ccc(C)c(NC(=O)CN(C)S(=O)(=O)c2cccc3cccnc23)c1 -10.7%, Cc1ccc(Cl)cc1N1CCN(CCCNC(=O)Cn2ncc3c([nH]c4ccccc43)c2=O)CC1 -0.475%, Cc1ccc(C)c(NC(=O)CSc2nc(-c3ccccc3)c(C#N)c(=O)[nH]2)c1 -15.1%, Cc1ccc(CNc2nc3ccc(Cl)cc3n3cnnc23)cc1 -15.2%, COC(=O)c1ccccc1NC(=O)C1=CC(c2ccc3c(c2)OCO3)=NS(=O)(=O)N1C -5.84%, CCc1cccc(C)c1Nc1c(-c2ccc(SC)cc2)nc2sccn12 15.2%, CCOc1ccc(N(C(=O)c2ccc(Cl)cc2)S(=O)(=O)c2ccc3c(c2)n(C)c(=O)n3C)cc1 5.5%, Fc1ccc(-c2noc3ncnc(Nc4ccc(F)cc4F)c23)cc1 -24.9%, Cc1cccc(NC(=O)Cn2c(=O)n(Cc3ccccc3)c(=O)c3sc4ccccc4c32)c1 -24.8%, CCOc1ccc(CCNC(=O)c2cccc(Nc3nc4ccccc4nc3-n3nc(C)cc3C)c2)cc1OCC -9.47%, COc1ccc(CCNC(=O)Cn2nnc(-c3ccc(Cl)cc3)n2)cc1OC 5.37%, Cc1cccc(NC(=O)CSc2ncc(-c3ccc(Br)cc3)[nH]2)c1 -28.8%

From PubChem BioAssay AID1508623 (National Center for Advancing Translational Sciences (NCATS), 2021)
